# Experimental data: the supplement of paper PMC11417369
# Some of the results follow.
# Tested on: PfSIP2 AP2 domain 1 (GST-tagged)
# Test: gcPBM binding intensity (ln(normalized median fluorescence intensity)); higher = stronger DNA binding
# In short: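 Plasmodium falciparum DNA-binding domains carrying a GST tag were expressed in E. coli and applied for 1 h, at about 25 μg on average, to an Agilent 4 × 180k array. The array held primer-extended double-stranded 36-bp intergenic genomic probes together with negative controls, and binding took place in 1× PBS with 1% milk, 0.2 mg/ml BSA, 0.5% salmon testes DNA and 0.03% Triton X-100. An Alexa488 anti-GST antibody detected bound protein, and the array was scanned at 488 nm. Binding intensity is taken as the highest Masliner-normalised natural-log median intensity across replicate spots of either probe orientation.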
row,Sequence,gcPBM binding intensity (ln)
1,ACCACCAGGAACAAAGCACATTAGGAAAAATAAAAC [XGTACX_negctrl_site228],7.05
2,TTGAATAAATTGGAATAAATATAATAAAATAAGGAA [XGTACX_negctrl_site302],7.09
3,CATACATATATTATTGCACACATATAAAATACCCCC [CACACA_site9292],9.04
4,TACCAATAAATGAAGGTGCGTGCTTGCCTTTGCTAT,9.14
5,TAGGAATTTAATAAATGTACATATACATAATATATA [XGTACX_site3672],6.84
6,TTGTATAGTCTGATATGTACATATATATATATATAA [XGTACX_site4307],7.62
7,TGGATACACAAAAATTAAAAAAATAAACAAACAAAT [GTGCAC_negctrl_site105],7.01
8,TCCTTACATTTTAAAACACACAAAAATTAATTGTTA [CACACA_site2313],6.99
9,AAAAAATAGTGGTATGCATGTCCCTTGTATTTTCTT [TGCATGCA_site587],6.77
10,TACTTTTATATGAATACACACAGGAATATAAATATG [CACACA_site7647],7.2
11,AAAATACCCATTTTAGTACACACTTAAAAAATTATT [CACACA_site8966],6.8
12,TGTGTAATATTCTGTTGTACATAACTCATAAATAAA [XGTACX_site5308],7.07
13,TATATATCCTCTGAATGTACTTGTTTAATAATGTAG [XGTACX_site4332],6.93
14,ATAATATAATATATATGTACACATCCTTTTTGTGTA [XGTACX_site2879],7.09
15,TAAAAGTAAAAAGGTAGTACCTAAATAATATATATA [XGTACX_site8399],7.78
16,ATAAGATAGGCATATACACACATTTATTTACAGATA [CACACA_site5754],6.87
17,TTCAACATATTAAAAAGTACAGAATATAACATTATA [XGTACX_site1361],6.86
18,GAATAAAAAATTGGCACACATAAATATATGGATATA [CACACA_site3047],6.99
19,AATAAATTTAGACACACACACACATATAAATAAATA [CACACA_site6531],7.17
20,TATACGTGAATGACAGTGCATTTCAAAAGTATAAAA [GTGCAC_site9887],8.47
21,TTTGGGTATACACATACATGCATGTCCTTATATATA [TGCATGCA_site84],6.9
22,ATATCATAAATTTATGCATGTTCTTTCTTCAACTCT [TGCATGCA_site992],6.9
23,AGTAGGCATATTGGTTGTACAAAAAAATTATGCACC [XGTACX_site8925],10.3

row,Sequence,gcPBM binding intensity (ln)
1,TTTTTTTTTTCTCTCGCACACATTTTTTAAAATGAG [CACACA_site2607],7.38
2,ATATATATATATGTTTATTTATTTGAACGATTGTGG [CACACA_negctrl_site828],9.36
3,ATATTTATATAGATGTGTACATAAATATAATAACAT [XGTACX_site1681],7.15
4,GACTCTTAAAAAATTTGTACCCACATAAATAATATA [XGTACX_site4313],7.34
5,AAAAATAAAATATATACACACATATATATATATATA [CACACA_site2943],9.57
6,ACATATATATATATGTGTACATATTTATACAACAAT [XGTACX_site6660],7.5
7,TTTTTAATTTTGTGGGTGCTTTCGTGTTATTATATA,8.05
8,AGGAAATTTGTTATTGCACACAAATTTTTCTTTTTT [CACACA_site8732],6.78
9,AATGTCAGTATGCGAGGTACACGTATAAAAATTACA [XGTACX_site4109],7.15
10,TATTATAATAAACCTATACACACATAAATAAATAAA [GTGCAC_negctrl_site627],7.03
11,TTTTACTAAATATATACACACATTATACAGATATAT [CACACA_site5765],7.1
12,TACATAAATTAAAACACACACACACTAGAAAAAAAA [CACACA_site5278],7.04
13,TATATATATATACCAACACACATACATATATATATA [CACACA_site8530],9.43
14,TAAAAAATAAAAATTGCACACTAAAAAATTACGCAC [CACACA_site9129],8
15,TGTCACATAATTTATGCACACAATGATTATGCTTAA [CACACA_site2358],7.26
16,AAGTATAAATTAAAATGTACTTATAAAAAAAAAGAA [XGTACX_site7028],7.12
17,ACATATATTGTACATACACACCTATATAAATATCCT [CACACA_site7503],7.48
18,TATGTATGTATGTATGCATGTGTAACACCTAAATAT [TGCATGCA_site361],7.37
19,CCATATTTCATTAATGAACACACAAAGAGGTATATA [CACACA_site8431],7.11
20,ATCTCTACAAAGTGCACACACGTAAAAACATATATA [CACACA_site6046],10.8
21,ATTTTCCTTTAATTATGTACTTATGTAATAATAATG [XGTACX_site2612],6.92
22,TGTATGATTATGTTGTGTACGTAAAATATGAAAAAT [XGTACX_site1720],7.79
23,GCACACATATAATTAAACATATATTTGTATTATTTT [GTGCAC_negctrl_site327],6.99

row,Sequence,gcPBM binding intensity (ln)
1,GTATCATAAAAGTATACACACATACATACATATGTA [CACACA_site5456],7.28
2,TATCCTAATGCTACCACACACACAAAAACAAATAAT [CACACA_site2609],7.5
3,AATATTTATGGGTGCACACAAACATACATATATATA [CACACA_site3395],11.8
4,AAAAAAAAGAATAGAGCATGCAAAATATATGAAATA [TGCATGCA_site933],6.73
5,ATGTTGAAAGGAAAAAATAATAAAATCGATATATTA [CACACA_negctrl_site549],6.72
6,CCTTACTTCTTATAAAGTACCCAATGATATACATTA [XGTACX_site1554],7
7,TTTTAATGTATATTTTGTACGTATTATTAATATTCG [XGTACX_site8453],6.99
8,TAAAGATATAAATGCACACGTATTAAAAAAAAAATA [CACACA_site952],7.4
9,TTATCATTACATGAGTGTACATTATTATATTTTTTT [XGTACX_site7845],6.84
10,ATATATTTTTTTTTTTGTACGTATATTTATATAATT [XGTACX_site8719],7.1
11,GAAAGAAAGAAAGAAAGTACATATAAAAATATACAT [XGTACX_site7299],6.67
12,TCGTGTTTTAAAAAAATGAAGAAAAGTAAAAAAAAA [XGTACX_negctrl_site23],7
13,ATGATAGTAATTAATAGTACTTTTTTTGATACAAAA [XGTACX_site4288],6.84
14,TAATATGAATATATATGTACATACAATTTGTTATAT [XGTACX_site5815],7.12
15,ATTAAATGTATGACTTGTACATAAAATAAAAAAAAA [XGTACX_site6555],6.96
16,ATTAGTGACATTATTACACACAAAAGAAAACAGAAA [CACACA_site3984],7.25
17,TGAATCTATATACAGGTGCGTAAAAAATAACTTATA,8.67
18,CAAGAATTAAAATAAAGTACAAAAGTAACAACTTTT [XGTACX_site1474],7.11
19,AAAAAAAAGGAAAAGGGTACAAAACCATACTTACAT [XGTACX_site4783],6.77
20,AGTATAAGCATTATTGTGCACATAATTATAATTTTT,8.88
21,AGTTTAAATTAAATTACACACTACGAATAATATATT [CACACA_site7811],6.95
22,GTTGCAATTAACACTAGTACATATAAGTAGTTTATT [XGTACX_site2063],6.86
23,ATTGTTCTCCAAAAGTGTACGTATTATTTTTCTGGA [XGTACX_site1404],7.3

row,Sequence,gcPBM binding intensity (ln)
1,TATATATTAATAAATAGTACCCGTGGAATTTATATT [XGTACX_site5855],6.95
2,AATAATGAAACAGGAAAAAAATATTGTTAAAATGTA [XGTACX_negctrl_site400],7.04
3,TATTAATCTTTTTTTAAACAAAAAATTAAGCAAATT [CACACA_negctrl_site884],6.82
4,AATTATTGTGAAGGGAAAACAAAAAAGTTTATAATT [CACACA_negctrl_site1337],6.87
5,AAGCGAATATATATCACACACAAAAAAATCAGACTA [CACACA_site2108],6.9
6,AACTAATAAAAAAAAAGTACACAATATGTAAATAAC [XGTACX_site5263],7.24
7,AACAAATATATTAACACACAAACATATAAACCAATG [CACACA_site3970],7.19
8,TATATATTATATATATGTACATACTTTTTACGTTCA [XGTACX_site2493],7.12
9,AAATTAATTAAATATACACACATATATAGATATATA [CACACA_site6321],6.86
10,ACCACATTTTTTTTTGCATGTTGTTTAAAAAAAGGC [TGCATGCA_site137],7.16
11,TATATATAATATATATGTACATAATATATTTTATAT [XGTACX_site2909],7.48
12,TAAAACACTCATGGCACACATAAAACATTTTTATGA [CACACA_site3574],7.11
13,TATAAAAAATAATTATCATGAAATATATGATCATCA [TGCATGCA_negctrl_site137],6.63
14,ATTATTATTTATATGATACACACGTACATATACGCA [CACACA_site3823],7.04
15,TTAAAAAAAATATAATGTACTTGTAGAATTATATTT [XGTACX_site6220],6.73
16,TATATTTTTTATAAATGTACATGGATAGGCATAAAC [XGTACX_site8401],7.42
17,TCAAAAATGAGTTACACACACACATATATATATATA [CACACA_site2229],9.58
18,ATATGAATAAATAAAAGTACATACATAATGTATTAT [XGTACX_site5969],6.99
19,AGTATATAAAATACTGTATCGATGGGGGAGGGCGCA [CACACA_negctrl_site1612],8.06
20,ACAAATAAATAAAAAACACACACAAATAAATAAATA [CACACA_site8708],6.81
